Source: the DeepSol protein solubility set

Assay: soluble on expression in E. coli; label from the status in PepcDB or PDB records

Substance	soluble on expression in E. coli
MSLKITELHLYAHPLPVRDGPYRMASTEVWSLDTTLVKLVTDSGLIGWGETCPVGPVYQPQHAAGARAALAEMAPGLIGADPLQPLRLQRRMDGLLNGHRYAKAAIDIAAHDLMGKAWGVRVADLLGGAVTERVPSYYASGVGEPDEIARIAAERADEGYPRMQVKIGGRPVEIDIETIRKVWERVGTRMRLAVDGNRGLTTRDALRLSRECPEIPFILEQPCNSIEEIAAIRGQLHHAVYLDETAEDVATVLRAVGQGVCDGFGMKVTRIGGLRPMAVFRDICEVRSMPHTCDDAWGGDIIAAACTHIGATVQPRLMEGVWLAQPYIEGHFDPENGLRIEGGHIRLPEGPGLGIVPDESLFGAPVASFGEGHHHHHH	not soluble
GEDAIPGSWPWQVSLQDKTGFHFCGGSLISEDWVVTAAHCGVKTSDVVVAGEFDQGSDEENIQVLKIAQVFKNPKFNMFTVRNDITLLKLATPAQFSETVSAVCLPNVDDDFPPGTVCATTGWGKTKY	soluble
MMAAKKRVTAAKDKWKLKQWYIIYAPDFFGGVEVGLTPADDPEKVMNRVVEVTLKDITGDFTKGHVKLYFQVYDVKGQNAYTKFKGMKLARSYIRSLVRRRTTRIDGIFNITTKDGYRLRVMAMAIAMRRIQTSQERAIRKIMQEIIYKKAEELNFKDFVLEAVNGKIAAEIAKEGKKIYPLKKAEIRKIKVLGEPEAALEHHHHHH	soluble
RCSHHWGYGKHNGPEHWHKDFPIANGERQSPVDIDTKAVVQDPALKPLALVYGEATSRRMVNNGHSFNVEYDDSQDKAVLKDGPLTGTYRLVQFHFHWGSSDDQGSEHTVDRKKYAAELHLVHWNTKYGDFGTAAQQPDGLAVVGVFLKVGDANPALQKVLDALDSIKTKGKSTDFPNFDPGSLLPNVLDYWTYPGSLTTPPLLESVTWIVLKEPISVSSQQMLKFRTLNFNAEGEPELLMLANWRPAQPLKNRCVRGFPK	soluble
VSCRRMSTATTVAPAGIPATPGPVNPPPPEVSNPSKPGRKTNQLQYMQNVVVKTLWKHQFAWPFYQPVDAIKLNLPDYHKIIKNPMDMGTIKKRLENNYYWSASECMQDFNTMFTNCYIYNKPTDDIVLMAQALEKIFLQKVAQMPQEEVELLPPAPKGKGRKPAAGAQSAGTQQVAAVSSVSPATPFQSVPPTVSQTPVIAATPVPTITANVTSVPVPPAAAPPPPATPIVPVVPPTPPVVKKKGVKRKADTTTPTTSAITASRSESPPPLSDPKQAKVVARRESGGRPIKPPKKDLEDGEVPQHAGKKGKLSEHLRYCDSILREMLSKKHAAYAWPFYKPVDAEALELHDYHDIIKHPMDLSTVKRKMDGREYPDAQGFAADVRLMFSNCYKYNPPDHEVVAMARKLQDVFEMRFAKMPDEPVEAPALPAPAAPMVSKGAESSRSSEESSSDSGSSDSEEERATRLAELQEQLKAVHEQLAALSQAPVNKPKKKKEKKEKEKKKKDKEKEKEKHKVKAEEEKKAKVAPPAKQAQQKKAPAKKANSTTTAGRQLKKG[gap - about 80 residues]QRKPFSASGKKQAAKSKEELAQEKKKELEKRLQDVSGQLSSSKKPARKEKPGSAPSGGPSRLSSSSSSESGSSSSSGSSSDSSDSE	soluble
MPEGFIKAGQRPSLSGTPLVSANQGVTGMPVSAFTVILSKAYPAIGTPIPFDKILYNRQQHYDPRTGIFTCQIPGIYYFSYHVHVKGTHVWVGLYKNGTPVMYTYDEYTKGYLDQASGSAIIDLTENDQVWLQLPNAESNGLYSSEYVHSSFSGFLVAPM	soluble
MLTRWWRKRSSPLPNNENRIMTIKHTQDLAQIRAMVPEMRRVKAIHFIGIGGAGMSGIAEVLLNEGYQISGSDLAANAVTDRLADKGATIFIGHEAHNVAHASVVVVSTAINEQNPEIQAAREKRIPIVRRAEMLAELMRFRHGIAVAGTHGKTTTTALVTQIYSEAGLDPTFVNGGLVKSAGTNARLGSSRILIAEADESDASFLHLQPMVTIVTNIEADHMDTYGGDFENLKQTFIDFLHNLPFYGQAILCIDDPVIRELIPRVSRQVITYGFSEDADVRIENYRQNGQQGQFTVVRKGKANLDITLNIPGRHNALNAAAAIAVATEDDIRDEAILRAMANTQGTGRRFDHLGEFETGNGVAMLVDDYGHHPTEVDVTIKAARNGWAEKRLVMIFQPHRYTRTRDLYDDFANVLEQVDVLIMLDVYAAGEKPIAGADGRSLCRTIRSRGKIDPIFVPDSQTLPSVLANILQDGDLVLTQGAGDVGKVARHLAALELNIGRMQQI	soluble
MSGPGIEGLAVGLNKGHAATQLPVKQRQNRHKGVASKKTKIVRELVREITGFAPYERRVLEMLRISKDKRALKFLKRRIGTHRRAKGKREELQNVIIAQRKAHK	not soluble
MLALEAAQLDGPHFSCLYPDGVFYDLDSCKHSSYPDSEGAPDSLWDWTVAPPVPATPYEAFDPAAAAFSHPQAAQLCYEPPTYSPAGNLELAPSLEAPGPGLPAYPTENFASQTLVPPAYAPYPSPVLSEEEDLPLDSPALEVSDSESDEALVAGPEGKGSEAGTRKKLRLYQFLLGLLTRGDMRECVWWVEPGAGVFQFSSKHKELLARRWGQQKGNRKRMTYQKLARALRNYAKTGEIRKVKRKLTYQFDSALLPAVRRA	soluble
MYPRELKWGVAHIYSSFNNTHVHITDLTGAETVARVTGGMVVKADREKPSPYAAMIAASRAAQKAMERGIAAIHIKVRAPGGHGPKTPGPGAQAAIRALARAGFIIGRIEDVTPIPHDTTRRPGGRRGRRV	soluble
MGSDKIHHHHHHMIKITKGLDLPIAGMPLQQISPAPAVKRVALLGEEYVGMRPAMAVKEGDRVKKGQILFEDKKIPGVCFTAPASGIVSAIHRGERRVLQSVVIDIEGNDAVAFTRYAADALAELPRDTVQQQLLASGQWTALRTRPFSKTPLPGSTPAAIFVNAMDTNPLAAEPQPIILAERAAFDAGLTVLTRLTDGKVHVCQPSGGKLGGHPLGQVCFNQFSGPHPAGLPGTHIHFLEPVSLNKQVWHLNYQDAIAIGKLFLDGELYCERIIALGGPQVTSPRLVKTTLGASLEDLLAGELQEGENRVISGSVLSGARAHGPHAFLGRFHLQVSVVKEGREKELFGWVMPGKEKFSITRTTLGHFFKRKRFHFSTDTNGGERAMVPIGNYERVMPLDILPTILLRDLLAGDTDSAQALGCLELDEEDLALCTYVCPGKYEYGPALRSVLTRIEQEG	not soluble
MESMKPMYRSRSWRRKYVRTPGGRVVVHFERKKPKIAHCAICGRPLNGIPRGRPVEMRKLPKTKKRPERPMPYLCPRCMRRVMKEQIRSQIMKGLEHHHHHH	not soluble
APDFCLEPPYDGPCRALHLRYFYNAKAGLCQTFYYGGCLAKRNNFESAEDCMRTC	soluble
AHHHHHHGSAIWQGRSLKKPSGGRIVLARKKRKRELGREPSNTRVAEQDKRKIIRTYGGNRKVRLTAAAYANVFDKSGKGRKVRIIRVIENPANRQFARRNIITKGAIIETEIGKAKVTSRPGQDGVVNAILLEE	not soluble
MGAYKYMQEIWRKKQSDALRYLLRIRTWHYRQLSAVHRVPRPTRPEKARRLGYRAKQGFVVYRVRVRRGNRKRPVCKGQTYGKPKTHGVNELKNAKSKQAVAEGRAGRRLGSLRVLNSYWVAEDSTYKFYEVVLIDPFHKAIRRNPDTQWITKPVHKHREQRGLTSAGRKSRGLGKGWRFSATRGGSQAKNWKRKNTKVFHRKR	not soluble
